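Cultured in 96-well plates, cells were exposed to test compound for 48 hours across five concentrations. GI50 marks 50% less growth. The concentration for full growth arrest is given as TGI.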
What follows are compounds tested on NCI-H322M lung (assay: inhibition of tumour cell growth, NCI panel, 48 h).
In the case of `CN1CCN(c2ccc(Nc3nc(N4CCN(S(=O)(=O)c5ccc(Cl)cc5)CC4)c4sccc4n3)cc2)CC1`, the GI50 is reported as 12.7 µM and the TGI is reported as 29.8 µM.
`CCC(C)S(=O)(=O)c1oc(-c2ccc(C)cc2)nc1S(=O)(=O)c1ccccc1` (configuration not stated) gave a GI50 of 12.3 µM and a TGI of 24.7 µM.
Compound `O=C(Nc1nc2ccc([N+](=O)[O-])cc2s1)Nc1ccccc1I` has a GI50 of 3.19 µM and a TGI of 33.9 µM.
Compound `C=C1CC[C@@H]2[C@]3(C)COC(c4cn[nH]c4-c4ccc(Br)cc4)O[C@@H]3CC[C@@]2(C)[C@@H]1C/C=C1/C(=O)OCC1O` (some centres not stated) has a GI50 of 12.5 µM and a TGI of 25.6 µM.
Compound `COc1ccc(-c2cc(-c3cc(C(C)C)c(O)cc3C)nn2-c2ccc(S(N)(=O)=O)cc2)cc1` has a GI50 of 12.5 µM and a TGI of 25.1 µM.
With `Cc1cc(N=C2NC(=O)/C(=C/c3cc(C(C)(C)C)c(O)c(C(C)(C)C)c3)S2)n[nH]1` the GI50 was 3.49 µM and the TGI was 21.8 µM.

Reference: PubChem BioAssay (NCI)
